{
  "source": "ChEMBL document CHEMBL4888484",
  "about": "“Replenishing the malaria drug discovery pipeline: Screening and hit evaluation of the MMV Hit Generation Library 1 (HGL1) against asexual blood stage Plasmodium falciparum ,using a nano luciferase reporter read-out” (2022)",
  "note": "The campaign covered roughly 150,000 compounds. About 540 (0.36%) showed an effect of 50% or more. The list shows a part of the results.",
  "data": [
    {"system": "Plasmodium falciparum", "assay": "Primary screen in NF54 nanoGlo assay, in single point, at 2uM, 72h; a lower Z score goes with more inhibition", "assay_type": "functional, Erythrocyte", "details": "timepoint 72 hour", "units": {"% Inhibition": "%"}, "values": [
      {"compound": "O=C(c1ccc(F)cc1)N1CCN=C1c1ccccc1", "% Inhibition": -11, "Z score": 1.39},
      {"compound": "Cc1nc(CNC(C)C2CCCO2)no1", "note": "(stereo not drawn)", "% Inhibition": -6, "Z score": 0.88},
      {"compound": "O=S(=O)(/N=C(/N1CCOCC1)C(Cl)(Cl)Cl)c1ccccc1", "% Inhibition": -3, "Z score": 0.42},
      {"compound": "CCC[C@@]1(C)C(=O)NCCN1C(=O)c1cscn1", "% Inhibition": 1, "Z score": -0.24},
      {"compound": "NS(=O)(=O)c1cccc(NC(=O)CCC(=O)c2ccc3c(c2)OCCO3)c1", "% Inhibition": -18, "Z score": 2.91},
      {"compound": "COCCN1CCC(CN(Cc2ccncc2)Cc2cc(C)c(C)o2)CC1", "% Inhibition": -30, "Z score": 4.08},
      {"compound": "CC(CNC(=O)C1C2CCCC21)c1nc2ccccc2s1", "note": "(stereo not drawn)", "% Inhibition": -17, "Z score": 2.06},
      {"compound": "CCOc1ccc2c(c1)C(=C1SC(C(=O)OC)=C(C(=O)OC)S1)C(=S)C(C)(C)N2C(=O)CN1C(=O)CCC1=O", "% Inhibition": -13, "Z score": 1.49},
      {"compound": "CC(C)(C)OC(=O)NCCc1nnc(N)o1", "% Inhibition": -1, "Z score": 0.18},
      {"compound": "COCCC(=O)Nc1cc(C(F)(F)F)ccc1Br", "% Inhibition": -4, "Z score": 0.46},
      {"compound": "NC(=O)c1cccc(NC(=O)CCC2CCCCC2)n1", "% Inhibition": -17, "Z score": 3.15},
      {"compound": "CC(NC(=O)c1ccc(S(=O)(=O)N2CCCCCC2)cc1)C1CC2CCC1C2", "note": "(stereo not drawn)", "% Inhibition": 7, "Z score": -0.71},
      {"compound": "C[C@@H](CCC(=O)N1CCc2nocc2C1)N1CCOCC1", "% Inhibition": -7, "Z score": 0.95},
      {"compound": "COCC1(O)CCN(C(=O)N[C@H](C)c2cc(C)ccc2OC)CC1", "% Inhibition": -3, "Z score": 0.4},
      {"compound": "CN(C(=O)[C@@H]1C[C@H]1C(=O)N(C)C1(C#N)CCC1)C1(C#N)CCC1", "% Inhibition": -6, "Z score": 1.04},
      {"compound": "COc1cc(C(=O)NCCN(C)C)cc(OC)c1OC", "% Inhibition": -6, "Z score": 1.13},
      {"compound": "COc1ccc(CN(CC(C)C)CC(C)(C)C)nc1", "% Inhibition": -8, "Z score": 1.01},
      {"compound": "Cc1nc2nnnn2c(C)c1C/C=C/c1ccccc1", "% Inhibition": 31, "Z score": -0.74},
      {"compound": "Cc1ccc(N(C)C(=O)c2cccn2Cc2noc(C3CC3)n2)cc1", "% Inhibition": 0, "Z score": 0.07},
      {"compound": "O=C1COCC(CC2CN(c3ncnc4sccc34)c3ccccc32)N1", "note": "(stereo not drawn)", "% Inhibition": 12, "Z score": -1.66},
      {"compound": "COc1ccc(CNC(=O)Cc2nnc(-c3ccc4ncccc4c3)o2)cc1", "% Inhibition": 0, "Z score": -0.03},
      {"compound": "O=C1CCCc2c1[nH]c1cc(-n3ccnc3[C@H]3CCOC3)ccc21", "% Inhibition": -2, "Z score": 0.39},
      {"compound": "CC(=O)N/C(=N\\OCc1ccc(F)cc1)c1nonc1NC(C)=O", "% Inhibition": 29, "Z score": -3.24},
      {"compound": "CC(C)(Oc1ccc(Cl)cc1)C(=O)Nc1c2c(nn1C(C)(C)C)CS(=O)(=O)C2", "% Inhibition": -14, "Z score": 2.68}
    ]}
  ]
}
